# The other results are listed elsewhere or left out. Viral Rep nickase domains cut single-stranded DNA in vitro (1 h at 37 °C, 3 µM enzyme); the outer parts of the 90-letter strands are left off. A value is the log2 ratio of uncut reads to the pool without enzyme; the lower, the more was cut; hits are not called. Reads are scaled to the total, so uncut sequences can rise above 0 when many others are cut.
# Legend:
# Assay in all cases: uncleaved DNA left, log2 of reads against the no-enzyme library (log2 ratio); higher = less cleavage (more negative = more Rep cleavage of the k-mer); sequences stand for … in CTCGTCCG…ACCGGAGA
# [1] = system: T1, Rep nickase domain of Muscovy duck circovirus
# T1 sequence (Rep 1-111, printed without the tag): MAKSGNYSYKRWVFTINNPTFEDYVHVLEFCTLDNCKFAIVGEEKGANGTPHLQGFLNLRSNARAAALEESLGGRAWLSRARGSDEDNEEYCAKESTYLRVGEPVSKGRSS
# Procedure: (§1)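 A pool of 90-nt single-stranded DNAs with seven random bases just before the constant AC of the nick site (name = the seven bases) was cut by 3 µM recombinant His6-SUMO-tagged Rep nickase domain (300 nM DNA, 50 mM HEPES pH 8.0, 50 mM NaCl, 1 mM MnCl2, 1 h, 37 °C, three replicates). Uncut DNA was amplified and sequenced.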
# [2] = system: T2, Rep nickase domain of banana bunchy top virus
# T2 sequence (Rep 1-94, printed without the tag): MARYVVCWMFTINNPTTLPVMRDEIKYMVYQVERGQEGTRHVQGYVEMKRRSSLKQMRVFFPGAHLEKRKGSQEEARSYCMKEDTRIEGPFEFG
# Procedure: as §1
# [3] = system: T3, Rep nickase domain of cabbage leaf curl virus
# T3 sequence (Rep 1-116, printed without the tag): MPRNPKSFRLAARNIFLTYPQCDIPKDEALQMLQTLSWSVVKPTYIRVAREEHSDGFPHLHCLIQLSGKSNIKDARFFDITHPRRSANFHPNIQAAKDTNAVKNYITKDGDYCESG
# Procedure: as §1
# [4] = system: T4, Rep nickase domain of chickpea chlorotic dwarf virus
# T4 sequence (Rep 1-124, printed without the tag): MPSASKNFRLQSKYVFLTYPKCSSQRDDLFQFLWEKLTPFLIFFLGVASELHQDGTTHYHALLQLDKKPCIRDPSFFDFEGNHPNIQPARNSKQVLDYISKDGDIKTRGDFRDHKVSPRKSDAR
# Procedure: as §1
# [5] = system: T5, Rep nickase domain of faba bean necrotic yellows virus
# T5 sequence (Rep 1-98, printed without the tag): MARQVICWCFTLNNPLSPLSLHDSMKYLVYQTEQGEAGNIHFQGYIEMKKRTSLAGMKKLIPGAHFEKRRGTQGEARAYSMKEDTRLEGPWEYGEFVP
# Procedure: as §1
# [6] = system: T6, Rep nickase domain of maize striate mosaic virus
# T6 sequence (Rep 1-117, printed without the tag): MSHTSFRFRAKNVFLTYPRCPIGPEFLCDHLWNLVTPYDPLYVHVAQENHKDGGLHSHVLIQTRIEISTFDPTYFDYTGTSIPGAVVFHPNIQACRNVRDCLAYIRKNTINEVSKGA
# Procedure: as §1
# [7] = system: T7, Rep nickase domain of porcine circovirus 2
# T7 sequence (Rep 2-116, printed without the tag): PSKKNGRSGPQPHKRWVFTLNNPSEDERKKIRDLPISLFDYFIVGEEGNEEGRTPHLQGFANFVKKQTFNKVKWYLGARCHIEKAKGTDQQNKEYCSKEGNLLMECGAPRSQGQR
# Procedure: as §1
# [8] = system: T8, Rep nickase domain of tomato yellow leaf curl virus
# T8 sequence (Rep 1-136, printed without the tag): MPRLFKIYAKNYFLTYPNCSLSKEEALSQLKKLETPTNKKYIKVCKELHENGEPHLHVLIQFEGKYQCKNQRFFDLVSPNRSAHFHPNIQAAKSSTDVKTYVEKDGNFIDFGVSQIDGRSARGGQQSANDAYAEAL
# Procedure: as §1
# [9] = system: T9, Rep nickase domain of wheat dwarf virus
# T9 sequence (Rep 1-137, printed without the tag): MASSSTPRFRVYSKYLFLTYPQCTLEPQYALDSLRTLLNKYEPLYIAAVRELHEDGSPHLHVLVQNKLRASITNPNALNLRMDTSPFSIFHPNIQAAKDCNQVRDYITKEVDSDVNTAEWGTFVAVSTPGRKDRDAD
# Procedure: as §1
Sequence,uncleaved DNA left (log2) [1],uncleaved DNA left (log2) [2],uncleaved DNA left (log2) [3],uncleaved DNA left (log2) [4],uncleaved DNA left (log2) [5],uncleaved DNA left (log2) [6],uncleaved DNA left (log2) [7],uncleaved DNA left (log2) [8],uncleaved DNA left (log2) [9]
GTGTGCG,-0.0498,-0.0199,-0.496,0.817,-0.0692,0.0649,0.171,-0.124,-0.0872
CCGACAA,0.0932,0.0386,0.256,0.336,0.223,0.151,0.0782,0.0425,0.18
GCAGCAC,0.0106,0.0359,-0.0631,-0.00405,-0.0261,-0.41,0.0647,0.0775,-0.034
CGACCCG,-0.0607,0.0139,-0.39,-0.417,-0.0203,-0.76,-0.0254,-0.0235,-0.0154
TGTCGGC,-0.0157,-0.016,0.227,0.167,-0.193,-0.119,-0.00214,-0.147,-0.0351
TTATGTT,-3.24,-0.864,-3.5,-3.14,-0.243,-2.52,-3.34,-0.113,-3.41
GAATGTC,0.0235,0.121,-0.6,0.553,0.0786,0.828,-0.0199,0.0952,-0.0556
GCACAAG,0.0836,-0.0133,-0.755,-0.401,0.0508,-0.921,0.15,-0.0049,0.012
TATGCTA,-0.0521,0.0469,-0.134,-1.77,0.0073,-0.964,-0.0785,0.0731,0.0418
TCGCAAA,0.137,-0.0277,0.0229,-0.0989,0.0253,-0.595,-0.0943,-0.132,-0.119
CTCACAG,-0.0497,0.0476,-0.747,-0.956,-0.0604,-0.869,0.237,0.0529,-0.124
GGTAGCT,-0.00265,-0.0178,0.396,0.788,-0.0242,0.935,0.0562,-0.0462,0.0191
AATTCAT,-3.33,-1.93,-0.00221,-1.4,0.0808,-0.422,-3.62,0.175,0.165
TCTCTAG,0.0236,-0.152,-0.446,-0.839,-0.0899,-1.19,0.0629,-0.0153,-0.124
TTCCGTA,0.0828,0.0582,0.293,-0.158,-0.0233,-0.0437,-0.0264,-0.0138,0.125

# From the supplement of paper PMC7826260
